Reference: PubChem BioAssay AID1460 (National Center for Advancing Translational Sciences (NCATS), 2008)
About 5,800 (2.1%) of roughly 270,000 compounds were called active. The shares of active, inactive and inconclusive entries below differ from those in the screen. Calls come from the whole dose curve; as a rule, active = well fitted inhibition curve with a large enough effect; inconclusive = small, poorly fitted or top-dose-only effect; inactive = flat fitted curve, though single readings scatter. Potencies of inconclusive entries are doubtful fits and often do not repeat.

molecular target: Microtubule-associated protein tau (Homo sapiens) (UniProt P10636); test: qHTS for Inhibitors of Tau Fibril Formation, Thioflavin T Binding; conditions: recombinant tau K18 P301L (four-repeat tau fragment), heparin-induced fibrillization, ThT fluorescence; series mostly up to 57.4 µM; note: nearly all actives have a fitted effect of over 55% in size
In short: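 Heparin-induced (20 uM) aggregation of recombinant human K18 P301L tau, 15 uM unlabeled with 0.24 uM labeled, pH 7 acetate buffer, 6 hr at 37 C with compound. Fibrils quantified by 30 uM ThT fluorescence after 1 hr ambient incubation.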
% is set by controls: 0 for no effect and ±100 for the full control effect; potency is the fitted concentration of half-maximal effect; tags give direction and shape of the fitted curve.

Chain of UniProt P10636 (P10636 whole entry, looked up, the tested form may be a part): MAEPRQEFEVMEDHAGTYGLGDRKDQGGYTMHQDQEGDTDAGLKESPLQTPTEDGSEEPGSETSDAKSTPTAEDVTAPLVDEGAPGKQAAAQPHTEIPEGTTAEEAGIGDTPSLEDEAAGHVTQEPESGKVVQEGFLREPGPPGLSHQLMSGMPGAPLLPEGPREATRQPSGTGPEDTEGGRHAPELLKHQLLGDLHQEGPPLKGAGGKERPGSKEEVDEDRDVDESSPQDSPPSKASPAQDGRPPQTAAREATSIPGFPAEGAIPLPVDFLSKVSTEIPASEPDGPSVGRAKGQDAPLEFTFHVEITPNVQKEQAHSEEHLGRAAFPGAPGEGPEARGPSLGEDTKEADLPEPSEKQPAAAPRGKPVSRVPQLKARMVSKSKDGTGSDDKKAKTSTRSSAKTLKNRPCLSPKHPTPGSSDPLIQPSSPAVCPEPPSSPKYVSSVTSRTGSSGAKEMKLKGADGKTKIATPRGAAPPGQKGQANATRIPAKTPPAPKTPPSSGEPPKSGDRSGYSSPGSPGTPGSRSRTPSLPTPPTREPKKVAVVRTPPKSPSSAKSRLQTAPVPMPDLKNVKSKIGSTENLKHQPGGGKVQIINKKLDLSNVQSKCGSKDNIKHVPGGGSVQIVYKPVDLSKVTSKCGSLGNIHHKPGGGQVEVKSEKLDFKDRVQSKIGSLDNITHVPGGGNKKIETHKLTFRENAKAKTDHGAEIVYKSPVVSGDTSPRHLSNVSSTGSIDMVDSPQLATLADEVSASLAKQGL

SMILES	Potency	activity, negative = inhibition
O=C(/C=C/c1ccco1)Nc1sc2c(c1C(=O)O)CCC2	inconclusive: 14.1 µM [inhibitor, partial curve]	–
CC1=C(C(=O)N2CCN(c3ccc(Cl)cc3)CC2)C2(CCC(C)CC2)OC1=O (configuration not stated)	inactive	–
CCOC(=O)c1nn(-c2ccc(OCC)cc2)c2nc(CC(C)C)c(C#N)c(=O)n12	inactive	–
c1cc(-c2cccs2)nc(-c2cccs2)c1	inconclusive: 39.8 µM [inhibitor, single point]	–
Cc1cc(C)c(C(=O)/C=C/c2cccc3ccccc23)c(=O)[nH]1	inconclusive: 39.8 µM [inhibitor, single point]	–
COCCN=c1scc(-c2cc(OC)c(OC)c(OC)c2)n1/N=C/c1c(C)[nH]c2ccccc12	inconclusive: 3.98 µM [inhibitor, full curve]	–
CCN(CC)S(=O)(=O)c1ccc(OC)c(NC(=O)c2ccc([N+](=O)[O-])cc2)c1	inactive	–
CCN(CC(=O)NCc1ccc(F)cc1)Cc1cc(=O)n2ccsc2n1	inactive	–
C/C(=N\Nc1ccc(C(=O)c2c(C)cc3ccccn23)cc1[N+](=O)[O-])c1ccc(O)cc1	inconclusive: 2.24 µM [inhibitor, full curve]	–
COc1ccc(OC)c(-c2csc(-c3c(N)c(C(=O)c4ccc(Cl)cc4)n4ccccc34)n2)c1	inconclusive: 3.98 µM [inhibitor, full curve]	–
CC1(C)OC(C(O)(c2cc(F)c(F)c(F)c2)c2cc(F)c(F)c(F)c2)C(C(O)(c2cc(F)c(F)c(F)c2)c2cc(F)c(F)c(F)c2)O1 (configuration not stated)	–	inactive: -4.72% [at 11.5 µM]
Nc1ccc(-c2nc3c(Cl)cc(N)cc3[nH]2)cc1	active: 20 µM	–
Cc1ccc(CN2CCN(/N=C/c3ccc(N(C)C)cc3)CC2)cc1	inconclusive: 39.8 µM [inhibitor, partial curve, poor fit]	–
COC(=O)c1ccc(NC(=O)Nc2cccc(F)c2)cc1	inconclusive: 28.2 µM [activator, partial curve]	–
COc1ccccc1CN1C[C@@H]2C[C@@H](c3[nH]c4c(C)cccc4c3C)N3CCC[C@@]23C1=O	inconclusive: 20 µM [inhibitor, single point]	–
COc1cccc(CNc2ncnc3cc(OC)c(OC)cc23)c1	inactive	–
CC(C)c1ccc(NC(=O)c2cnc3sc(N4CCCC4)nn3c2=O)cc1	inactive	–
Cc1ccc(NC(=S)NNC(=O)c2ccc(N3CCOCC3)c([N+](=O)[O-])c2)cc1Cl	active: 11.2 µM	–
CCCCc1nn(-c2cc(Cl)ccc2OC)c2c1C(=O)CCC2	inconclusive: 2.82 µM [inhibitor, partial curve, poor fit]	–
Cc1ccc(O)c(N=Cc2cc(Cc3ccccc3)cc([N+](=O)[O-])c2O)c1	active: 8.91 µM	–
COc1ccccc1N1CCN(C(=O)CSc2ncnc3c2cnn3-c2ccc(C)c(C)c2)CC1	inconclusive: 5.01 µM [inhibitor, partial curve]	–
Fc1ccc(-c2nc3ccccn3c2NCc2ccc3c(c2)OCO3)cc1	inconclusive: 31.6 µM [inhibitor, single point]	–
Fc1ccc2[nH]c3c(N4CCN(c5ccccc5)CC4)ncnc3c2c1	inconclusive: 15.8 µM [inhibitor, partial curve]	–

SMILES	Potency	activity, negative = inhibition
Cc1ccc(CNc2ccc(N3C(=O)CC(C)C3=O)cc2[N+](=O)[O-])cc1 (configuration not stated)	inconclusive: 20 µM [inhibitor, partial curve]	–
Cc1nccn1-c1ccc(C=O)cc1	inactive	–
CCOc1ccc(-c2nc(N)ncc2Oc2ccc(OC)cc2)c(O)c1	inconclusive: 12.6 µM [inhibitor, single point]	–
CCc1cc(=O)oc2c(C)c(OCC(=O)N3CCCc4ccccc43)ccc12	inconclusive: 7.08 µM [inhibitor, partial curve]	–
Cc1cccc(OCC(=O)N2CCN(c3nnc(-c4ccccc4)c4ccccc34)CC2)c1	inconclusive: 39.8 µM [inhibitor, single point]	–
CC(C)COc1ccc(C(=O)Nc2nnc(S(=O)(=O)N(C)Cc3ccco3)s2)cc1	inconclusive: 0.398 µM [inhibitor, full curve, poor fit]	–
COc1ccc(C(=O)Nc2nnc(S(=O)(=O)N3CCN(c4ccc(F)cc4)CC3)s2)cc1	inconclusive: 14.1 µM [inhibitor, partial curve]	–
CCOc1ccc(NC(=O)C(=O)N/N=C/c2cccnc2)cc1	inconclusive: 3.16 µM [inhibitor, partial curve]	–
CCCC[C@@H]1CN2[C@H](c3ccc(Br)cc3)[C@@H](C)CC[C@H]2C(=O)O1	–	inactive: -1.55% [at 11.5 µM]
CC(C)CC(=O)NC(=S)Nc1ccccc1C(=O)Nc1ccccc1	inactive	–
CCOC(=O)C1CCN(C(=O)c2c(C)nn(-c3ccc(F)cc3)c2-n2cccc2)CC1	inactive	–
Cc1c(Cl)cccc1-c1ccc(/C=N/n2cnnc2)o1	inconclusive: 17.8 µM [inhibitor, partial curve]	–
COc1cccc(Nc2nc3ccccc3nc2NS(=O)(=O)c2cccs2)c1	inconclusive: 15.8 µM [inhibitor, partial curve]	–
CCN(CC)S(=O)(=O)c1cccc(N=NC2=C(O)CCCC2=O)c1	inactive	–
COc1ccc(Cl)cc1Nc1nc(-c2sc(NC(=O)CC(C)C)nc2C)cs1	inconclusive: 15.8 µM [inhibitor, partial curve]	–
COc1ccc(NS(=O)(=O)c2ccc3nc(COc4ccc(Cl)c(C)c4)[nH]c3c2)cc1	inactive	–
N#CC(c1ccc(Cl)cc1)c1ccc2c(C(F)(F)F)cc(C(F)(F)F)nc2n1 (configuration not stated)	inconclusive: 17.8 µM [inhibitor, partial curve]	–
O=C(Nc1ccc2c(c1)OCCO2)N1CCN(c2ccccc2)CC1	inconclusive: 6.31 µM [inhibitor, partial curve]	–
COc1cc(C(=O)Oc2c(CN3CCOCC3)cc(Cl)c3cccnc23)cc(OC)c1OC	inconclusive: 15.8 µM [inhibitor, partial curve]	–
CC1(C)CC(N=c2cc(-c3ccccc3)oc3ccc(Cl)cc23)CC(C)(C)N1	inconclusive: 20 µM [inhibitor, partial curve, poor fit]	–
Cc1ccc2oc(-c3cc(NC(=O)CC(C)C)ccc3Cl)nc2c1	inactive	–
CCOc1ccc2noc3c2c1C(=O)c1ccccc1-3	inconclusive: 39.8 µM [activator, single point]	–
CCCc1cc(=O)oc2c(C)c3c(cc12)CN(CCc1ccc(Cl)cc1)CO3	inconclusive: 17.8 µM [inhibitor, partial curve]	–

SMILES	Potency	activity, negative = inhibition
Clc1cccc(-c2nc3nc4ccccc4nc3n2Cc2ccco2)c1	inconclusive: 25.1 µM [inhibitor, partial curve]	–
COc1ccccc1CNC(=O)CSc1ccc(Br)cc1	inactive	–
OC(COc1cccc2ccccc12)CN1CCN(c2ccccc2)CC1 (configuration not stated)	inconclusive: 15.8 µM [inhibitor, partial curve]	–
Cc1cccc(NC(=O)CC(C)(C)C)c1	inactive	–
CC(=O)Nc1ccccc1OCc1nnc(-c2ccc(Cl)cc2)o1	inconclusive: 31.6 µM [inhibitor, single point]	–
CC(C)=CCC/C(C)=C/CO/N=C1/C[C@@H](O)[C@@H](O)[C@@H]2[C@@H]3C(=O)N(Cc4ccc5c(c4)OCO5)C(=O)[C@H]3CC[C@@H]12	–	inactive: -5.49% [at 11.5 µM]
O=C(CCC(=O)N1CCN(c2ccc(O)cc2)CC1)c1ccc(Br)cc1	inconclusive: 3.16 µM [inhibitor, full curve]	–
CCOc1ccc(NC(=O)CS(=O)(=O)c2cn(CC)c3ccccc23)cc1	inconclusive: 7.94 µM [inhibitor, partial curve]	–
COc1cc(NC(=O)Cn2ccc3ccccc3c2=O)cc(OC)c1OC	inactive	–
Cc1cc(C)n(CCC(=O)N/N=C/c2c(O)ccc3ccccc23)n1	inactive	–
CN1CCN(c2cc(-c3ccccc3)nc3cc(-c4ccc(F)cc4)nn23)CC1	inconclusive: 31.6 µM [activator, single point]	–
CCn1c(=O)c(C(=O)Nc2nc3ccccc3[nH]2)c(O)c2ccccc21	inconclusive: 0.891 µM [inhibitor, full curve]	–
C#CCCCCCCCCCCCCCCCC(=O)O	inconclusive: 28.2 µM [inhibitor, partial curve]	–
COc1ccc(CNC(=O)[C@H](C)[C@H]2C[C@]2(C)[C@H](NC(=O)OCc2ccccc2)c2ccccc2)cc1OC	inactive	–
Cc1ccc(NC(=S)Nc2ccccn2)c(C)c1	inconclusive: 39.8 µM [inhibitor, single point]	–
C/C(=N/NC(=O)c1cccs1)c1ccc(NC(=O)COc2ccc(Cl)cc2Cl)cc1	inconclusive: 1.41 µM [inhibitor, full curve]	–
Cc1ccc(-n2ncc3c(N4CCN(Cc5ccccc5)CC4)ncnc32)cc1Cl	inconclusive: 1.41 µM [inhibitor, full curve, poor fit]	–
CCc1cc(=O)[nH]c(SCc2nc(-c3cccc(Cl)c3)no2)n1	inconclusive: 12.6 µM [inhibitor, partial curve]	–
Cc1cccc(N2CCN(C(=O)c3cccn4c(=O)c5c(C)c(C)sc5nc34)CC2)c1C	inconclusive: 7.94 µM [inhibitor, single point]	–
O=C(COCc1cc(-c2cccs2)on1)NCc1ccc(F)cc1	inactive	–
Oc1ccc(N2CCN(C(c3cccs3)c3nnnn3CCc3ccccc3)CC2)cc1 (configuration not stated)	inconclusive: 31.6 µM [inhibitor, partial curve]	–
